Measured values: the supplement of paper PMC10126150
Values marked as one replicate rest on one cluster of the flow cell; about a third of the high ones do not repeat.

System: ATP
Test: switch fluorescence ratio, 500 uM ATP over buffer (Cy3 cluster intensity, sum of 5 cycles each) (fold (ratio)); higher = stronger signal-on switching upon ATP binding; sequences stand for … in TCGTCGGCAGCGTCAGATGTGTATAAGAGACAGTTTTTTTTTTTTTTTTTTTTTTTTT…TC
Conditions: aptamer strand: ATP DNA aptamer (quencher-CACCTGGGGGAGTATTGCGGAGGAAGG + anchor), 100 nM annealed; ATP concentration: 500 uM; one replicate
In short: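 Between each of five buffer/ATP cycles, the flow-cell was stripped with NaOH and re-annealed. Each cycle imaged Cy3-labelled switching-strand clusters, annealed to 100 nM quencher-labelled ATP aptamer on a modified Illumina MiSeq flow-cell, first in selection buffer and then after 15 min with 500 uM ATP at 22 °C. The fluorescence ratio is summed target-cycle over summed buffer-cycle Cy3 intensity per cluster, averaged per switch-domain sequence, with clusters outside 100-1000 RFU excluded.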
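Further: ATP exposure 15 min at 22 °C before imaging.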

Sequence	switch fluorescence ratio
ATGTGGCATC	0.996
CCATCCATCT	0.978
CCATCGGACT	0.978
CAGTTTATAA	1.05
GGTGGTCGCT	1.01
TCGAACGTTC	1.05
CATTTGTCGG	0.986
TTAGCCCCTT	1.02
ATTGTTAGTA	0.991
TTCGACCACA	1.1
AGGCAGGATG	0.938
AGGCCCCGGT	1.06
AATTTTAATA	1.02
TTTGTGGCGG	0.942
TCTAATAAGG	0.959
AACGCTGGGA	0.991
TTGAAAAG	1.02
TGACCTTGTC	0.992
TACTTCACCG	1.41
TAGCTAGTAG	1.01
TCTGCGCCGA	1.07
GGTATTTATG	0.979
TGTCCGACCA	1.18
GGTATGTATC	0.968
ATCATGTACG	1.02
CAGTGTGGAC	1.02

Sequence	switch fluorescence ratio
GGTGTCGACC	0.986
TATGGGTCGA	0.97
CTCGAGCGGA	0.993
ATCGAGTCTC	1.01
TGGGACGGG	1.01
AAACGACCTT	1.4
CAGAAAGGTG	1.23
GCCTCAGTGG	1.03
CGGGACACTG	0.966
GTTGATGGGT	0.957
CGAAAGACAT	0.998
TTCTAGAACG	0.997
CGCTGGTTAT	1.02
AAGCTAAACG	1
TCCAACGG	1.02
CTAACCCCAC	1.22
CTAGTGCGTA	1.01
ATGAGCCTAT	0.966
AGGGGTGACA	1
TAGCTAACGG	1.05
CAGTCTTCTG	0.997
CGACGTGTAT	0.99
TGCTATTTGT	1.01
CGAATCCGAG	1.01
GGATAAAGTG	1.02
ACATGAGCAT	0.983

Sequence	switch fluorescence ratio
CTGGTAGCTC	1.22
CAAGTCCGCT	1.2
GGCAACAGGA	0.983
TTTAGCGCAG	1
CAATAGTCCT	1.26
TTATTGCAAG	1.04
GCTGTATTTG	1.05
GACGATGTC	1.03
CTTACGGTCT	1.04
CACACTGAAT	1
TAGTGACGGC	1.05
TCTTGGCATT	1.04
CTGATTGAGG	0.975
TCGGATGTA	0.952
GGACATTAGA	1.02
TTCTGGCCCG	0.963
AATCTCAGTA	0.924
GGCGTCTGGC	0.974
TTTGAGCC	1.11
ACTAACTGGT	1.12
TAAGGCGGAA	1.22
AAGCTCAGTC	1.04
TCGGAGGGAC	1.04
AGGATGCCGT	1.05
TATGTCTTTG	1.04
CGCATTTGTA	0.999

Sequence	switch fluorescence ratio
TACAAGGGGC	0.995
ATGCAGCCAA	1.24
TTCAAGAAAT	0.998
TTTATACT	1.07
TACATTCACA	1.26
GGGACGTACA	1.68
TTACATTAAG	1.05
GGGACAGAGT	0.992
CACGCAGAAA	1.15
TAAAAGTTTC	1.08
GTGTGGTATT	0.979
CCTAAGGTGC	2.38
GCCGGGCATC	1
TTTCCCTAGG	1.2
TAGGGTTGAG	1.01
GATAATGACT	1.01
GCGTATAT	1.32
CGGGGACTAA	1.07
CTAGCTGTTT	1.02
CCCTTTATTA	0.995
GAATCCGCGT	2
CCATTAGAGC	0.949
AGGGGTGGT	1.04
CGTTTGGTAC	1.09
GTTAATATTA	1.02
TGGTCCGTAC	1.15

Sequence	switch fluorescence ratio
TGTGTAGTGG	0.983
GCGGAGGTAG	0.94
TCAACTCTCC	1.12
TTTGTTGAAT	1
CCCCCTTTGG	1.75
GTTGACCCA	0.99
AGTTCGCTA	1.08
GCAAGCTGAT	1.03
GAAAAGCTCG	0.965
ATTTCTGAA	0.982
ATCGTGTATT	1.01
ATTAATGTCT	0.944
GTGGCCTTCT	0.977
GCCCTGATCT	1.05
GGTTCGAGGT	0.999
TGGTCCTATA	1.02
AGCTGTGAGA	1.07
CCTGGGCTAG	1.08
TTACTATTGA	1
AAAAGTTCGG	1.04
CGTCGCGAAA	1.05
TGGGTTTCAC	0.973
AACTTGTTAA	0.944
AGGTTCAACT	1.02
ACCTACAGGG	1.1
CCGTGCAGCC	2.86

Sequence	switch fluorescence ratio
ATTTATCGTG	0.98
ACAACCACCA	1.14
AAATAACTCC	1.2
GCCAGCGACT	1.02
GTTCGGAGC	1.19
AAATGAAACT	1.04
TCTGGAGGTC	1.07
ACTCTTGTGT	0.993
CAACTGCATC	1.88
ACTAAGGCA	1.02
GTGGAGCGTC	1.01
TGGTTTTACT	0.992
TTGTAGGTTC	1.27
TTGTATTAGA	1.02
CGAGCCGGA	1
ACGTTAACCT	1.47
ATTCGACGTG	0.967
AATCCCCATT	0.989
TTACTTTTTG	1.04
CGACTTACGT	1.32
TGTGATTGTC	1.04
CAGGTCTTGT	0.971
ATGGCGTC	0.984
CACGGAGTTC	1.04
